Test results as given in the RNAGym collection of RNA variant scans (doi:10.7554/elife.90254).
Read counts are not given, so values of variants with three or more changes are uncertain.

B1: LINE1-mini (parent)
chain: GGCAGAGCUCAACACAGCGUGGCAAAGUGGCUGUGGCUAGACUGCC

Variants of: B1
Experiment: self-cleavage, relative activity (ratio to wild type); higher = more cleavage; in vitro, sequencing; the parent is a self-cleaving ribozyme

Variant	self-cleavage
GGCAGUGCUCAACACAGCGUGGCAAAGUGGCUGUGCCUAUACUGCC	0.01
GGCAGAACUCGACACAGUGUGGCAAAGUGGCUGUAGCUAGACUGCC	0.03
GGCAGUGCUCAACACAGCGGGGCAAAGUGCUUGUGGCGAUCCUGCA	0.03
GGCAGUGCUCAACACAGCGUGGCAAAGUGGCUGUGACUAGACAGCC	0
GGCAGUGCUCAACACAGCGUGGCAAAGUGACUGUGGAUAGACUGCC	0.16
GGCAGUGCUCAACACAGCGAGGCAAAAUGGCUGUGGCUUGACUGCC	0.58
GGCAGUGCUCAACACAGCGUGGCAAAGUCUCUGUGGCUAGACUGCC	0.17
GGCAGUGCUCAACACAGCGUCGCAAAGUGGCUGUGACUAGACUGCC	0.14
GGCAGUGCUCAACACAGCGUGGCAAAGUCGCUGUGGCUAGACCGCC	0.51
GGCAGUGCUCAACACAGCGUGCCAAAGUGGCGGUGGCUUGACUGCC	0.05
GGCAGUGCUCAACACAGCGUAGCAAAUUGGCUGUGGCUAGACUGCC	0.4
GGCAGAACUCUACACCGAGUGGCAAAGUGGCUGUGGCUAGCCUGCC	0.01
GGCAGUGCUCAACACAGCGUGGCAAAGUGGCUGUGGCUACAAUGCC	0.04
GGCAGUGCUCAACACAGCGUGGCAAAGUGGCUGUGACUAGACUGCG	0.53
GGCAGUGCUCAACACAGCGUGGCAAACUGGCUUUGGCUAGACUGCC	0.03
GGCAGAACUCGACCCAGCGUGGCAAAGUGGCAGAGAUUAGACUGCC	0
GGCAGUGCUCAACACAGCGUGCCAAAGUAGCUGUGGCUAGACUGCC	1.25
GGCAGUGCGCAACCCAGCGUGGCAAAGUGGCUGUGGCUAGACUGCC	0.33
GGCAGUGCUCAACACAGCGUGGCAAAUUGGCUGUGGCUAUAAUGCC	0.03

Variant	self-cleavage
GGCAGUGCUCAACACAGCGUGCCAAAGUGGCUGCGGCUAGACUGCC	0.06
GGCAGUGCUCAACACAGCGUGGCAAAGUGGCUGUGGCGAGACUGCU	0
GGCAGUGCUCAACACAGCGUGUCAAAGCGGCUGUGGCUAGCCUGCC	0
GGCAGUGCUCAACACAGCGUGGCAAAGUGGCUGGGGCUAGACUGCU	0.06
GGCAGUGCUCAACACAGCGUGCCAAAGUGGCUGUGUCUAGACUGAU	0.73
GGCAGUGCUCAACACAGCCUGGCAAAGUGGCUGUGGGUAGUAUGCC	0
GGCAGUGCUCAACACAGCGGGGGAAAGUGGCUGUGGCUAGACUGAC	0.64
GGCAGUGCUCAACACAGCGUCGCACAGUGGCUGUUGCUAGACUGCC	0.07
GGCAGUGCUCAACACAGCGUGGCAAAGUGGCUGUGGCUAGACAGCU	0.4
GGCAGUGCUCAACACAGCGUGUGAAAGUGGCUGUGACUAGACUGCC	0.49
GGCAGUGCUCAACACAGCGGGACAAAGUGGCUGUGGCUAGAUUGCC	0.09
GGCAGUGCUCAACACAGCGUUGCUAUGUGGCUGUGGCUAGACUGCC	1.29
GGCAGUGCACAAAACAGCGUGGCAAAGUGGCUGUGGCUAGACUGCC	1.53
GGCAGUGCUCAACACAGCGGGGCAAAGUGGCUGUGGCUAGGAUGCC	0.01
GGCAGUGCUCAACACAGCGUGGCAAAGUGGCUGGGGCUACACUGCC	0.03
GGCAGUGCUCAACACAGCGAGGCAAAGGGGCUGUGGCUAGACUGUC	0.44
GGCAGUGCUCAACACAGCUUGGCAAACUGGCUGUGGCUAGAUUGCA	0.28
GGCAGUGCAAAACACAGCGUGGCAAAGUGGCUGUGCCUAGACUGCC	0.03
GGCAGUGCUCAACACAGCGUUGCAAAGUGGCUGUGGCUAGACUGCG	0.77

Variant	self-cleavage
GGCAGUGCACAACACAGCGUUGCAAACUGGCUGUGGCUAGACUGCC	0.08
GGCAGUGCCCACCACAGCGUGGCAAAGUGGCAGUGGUUAGACUGCC	0.02
GGCAGUGCUCAACACAGCCUGGCAAAGUGGCUGUGGCUCGACUGCC	0.1
GGCAGAACUCCACACAGCGUUGCAUAGUGGCUGUGGCUAGACUGCC	0.04
GGCAGUGCUCAACACAGCGGGGCAAAGUGGCUGUGGCAAGACUGCC	0.2
GGCAGAACUCUACACAGCGUGGCAAAGUCGCUGUGGCUAGACUGCC	0.02
GGCAGAACUCCACACAGCGUGGCACAGUGGCUCUGGCUUGACUGCC	0.01
GGCAGUGCUCAACACAGCGUGGCAAACCCGCAGUGGCUAGACUACC	0.11
GGCAGUGCUCAACACAGCGUUACAAAGUGGAUGUGGUUAGACUGCC	0.03
GGCAGUGCUCAACACAGCGUGGCAAAGUGGCGCCUGCUAGACUGCC	0
GGCAGUGCUCAACACAGCGUGGCAAAGUAGCUGUGGCUAGUAUGCC	0.04
GGCAGUGCUCAACACAGCUUGGCAAAGUGGCUGUUGCUAGACUGCC	0.03
GGCAGUGCUCAACACAGCGUGGCAAAGUUGCUGUGGCUAUACUGCA	0.09
GGCAGAACUCUCCACAGCGUGGCAAAGUGGCUGUGGCUAGACUGCC	0.01
GGCAGUGCCGAACACAACGUGGCAAAGUGGCUGUGGCUAGACUGGC	0.02
GGCAGUGCACAACACAGCGCGGCAAAGUGGCAGUGGGUCGACUGAC	0.04
GGCAGUGCACAACACAGUGUAGCAAAGGGGCUGUGGCUAGACUGCC	0.55
GGCAGUGCUCAACACAGCGUUGCAUAGUGGCUGUGGCUAGACUGCC	0.79
